Kd data for 1 molecule are collected here from patent US20110256153A1 (IMMUNOGEN, published 2011).

For the assay, the target named is T1, human CD37 (human, UniProt P11049 1-278).
T1 construct: Tetraspanin antigen; Expressed on 300-19 cells transfected with pSRa-CD37 (entire CDS) or endogenous on WSU-DLCL-2, BJAB and Ramos lymphoma cells; also called CD37 antigen; human CD37 wildtype
T1 sequence: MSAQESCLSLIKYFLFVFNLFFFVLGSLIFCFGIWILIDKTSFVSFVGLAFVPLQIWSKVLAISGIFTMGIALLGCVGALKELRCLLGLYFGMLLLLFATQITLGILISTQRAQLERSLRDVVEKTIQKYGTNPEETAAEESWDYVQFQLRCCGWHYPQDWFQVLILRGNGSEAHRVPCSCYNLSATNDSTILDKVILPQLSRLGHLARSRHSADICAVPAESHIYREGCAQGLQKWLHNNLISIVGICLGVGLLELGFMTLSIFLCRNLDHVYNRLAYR
Briefly: flow cytometry titration on Ramos cells; apparent Kd. The method, then: Binding specificity was tested by flow cytometry using purified antibodies. […] All murine antibodies were incubated for 3 h with either CD37-expressing 300-19 cells or the non-transfected 300-19 cells (1×10⁵ cells per sample) in 100 μL FACS buffer (RPMI-1640 medium supplemented with 2% normal goat serum). Then, the cells were pelleted, washed, and incubated for 1 h with 100 μL of FITC-conjugated goat anti-mouse IgG-antibody (Jackson Laboratory, 6 μg/mL in FACS buffer). The cells were pelleted again, washed with FACS buffer and resuspended in 200 μL of PBS containing 1% formaldehyde. Samples were acquired using a FACSCalibur flow cytometer with the HTS multiwell sampler or a FACS array flow cytometer and analyzed using CellQuest Pro (all from BD Biosciences, San Diego, US).
The chimeric antibodies chCD37-3 and chCD37-12 were assayed for their binding affinity to Ramos cells in comparison to their murine counterparts. Flow cytometry binding assays using Ramos cells and muCD37-3, chCD37-3, muCD37-12 and chCD37-12 antibodies were carried out and analyzed as described in Example 2 using secondary FITC-conjugated goat-anti-murine and -anti-human antibodies. […] The value for the apparent dissociation constant (Kd) of each antibody was calculated using GraphPad Prism v4 (GraphPad software, San Diego, Calif.).
(In general: Flow cytometry measures light scatter and fluorescence of single cells or particles in a stream.)

B1: chCD37-12 (antibody, human IgG1, kappa)
heavy: QIQLVQSGPELKKPGETVKISCKASGYTFTKYGMNWVKQAQGKGLKWMGWINTNTGESRNAEEFKGRFAFSLETSASTAYLQINNLKYEDTATYFCGRGTVVADWGQGTTLTVSS[not shown - human IgG1 constant region]
light: DIVLTQSPASLAVSLGQRATISCRASQSVSTSSYSYLYWFQQKPGQPPKLLIKYASNLASGVPARFSGSGSGTDFTLNIHPVEEEDTATYYCQHSWEIPYTFGGGTKLEIKRTVAAPSVFIFPPSDEQLKSGTASVVCLLNNFYPREAKVQWKVDNALQSGNSQESVTEQDSKDSTYSLSSTLTLSKADYEKHKVYACEVTHQGLSSPVTKSFNRGEC
notes: Chimeric antibody
For B1, the Kd turned out to be 1.2 nM.
